Laboratory results taken from PubChem BioAssay AID686979 (National Center for Advancing Translational Sciences (NCATS), 2013).
Hit rate of the full screen: of about 420,000 compounds, about 50,000 (12%) were called active. Inconclusive results, whose numbers are uncertain, are shown with a selection of clear calls. Calls come from the whole dose curve; as a rule, active = well fitted inhibition curve with a large enough effect; inconclusive = small, poorly fitted or top-dose-only effect; inactive = flat fitted curve, though single readings scatter. Potencies of inconclusive entries are left out as doubtful fits.

Experiment: qHTS for Inhibitors of human tyrosyl-DNA phosphodiesterase 1 (TDP1): qHTS in cells in presence of CPT; note: nearly all actives have a fitted effect of over 55% in size
Conditions: chicken DT40 Tdp1-/-;hTDP1 cells + 20 nM CPT, ATP luminescence, 48 h; activity change, negative = growth inhibition: at 46.2 µM (top of the series)
In short: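 Chicken DT40 Tdp1-/- cells complemented with human TDP1, 400 cells/well, exposed to compounds plus 20 nM camptothecin for at least 48 h at 37 C; viability read as ATP content by CellTiter-Glo luminescence.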
% is set by controls: 0 for no effect and ±100 for the full control effect; potency is the fitted concentration of half-maximal effect; tags give direction and shape of the fitted curve.

Question: Which Potency does the source give for COc1ccc(NC(=O)c2ccc3[nH]c(C)c(C)c3c2)c(OC)c1 here?
Answer: active: 23.1 µM

Question: Which Potency does the source give for O=C(Nc1ccccc1N1CCN(C(=O)c2ccccc2)CC1)c1ccc(Br)o1 here?
Answer: inconclusive [inhibitor, partial curve, poor fit]

Question: Which Potency does the source give for O=C(Nc1ccc(NC(=O)c2cc([N+](=O)[O-])ccc2N2CCOCC2)cc1)c1cccs1 here?
Answer: inconclusive [inhibitor, partial curve]

Question: With COC(=O)c1cc(OC(=O)CCc2ccc(OC)c(OC)c2)cc(C(=O)OC)c1 as the compound, how does the “activity change, negative = growth inhibition” value read?
Answer: inactive: 3.85%

Question: For Cc1cnc(NC(=O)Nc2ccccc2)c(C)n1, which “activity change, negative = growth inhibition” value is on record?
Answer: inactive: -0.439%

Question: With O=C(N/N=C/c1c(F)cccc1Cl)c1ccc(Cn2cc(Br)cn2)o1 as the compound, how does the “activity change, negative = growth inhibition” value read?
Answer: inactive: -9.16%

Question: With O=c1oc2ccccc2cc1-c1nc2ccccc2o1 as the compound, how does the Potency read?
Answer: inconclusive [inhibitor, single point]

Question: For CC(C(=O)C12CC3CC(CC(C3)C1)C2)N1CCOCC1 (configuration not stated), which Potency is on record?
Answer: inconclusive [inhibitor, single point]

Question: For O=C(CCCn1c(=O)c2cccn2c2ccccc21)NCc1ccccc1Br, which Potency is on record?
Answer: inconclusive [inhibitor, single point]

Question: For COC(=O)C1=C(C)N(Cc2ccccc2)C(=NCc2cccc(Cl)c2)N[C@H]1c1cccc(F)c1, which Potency is on record?
Answer: active: 2.59 µM

Question: With O=C(Nc1ccc(F)c(Cl)c1)c1cc(C2CCCN(C(=O)CCc3ccccc3)C2)on1 (configuration not stated) as the compound, how does the Potency read?
Answer: inconclusive [inhibitor, single point]

Question: Which Potency does the source give for Fc1ccc(NC(=S)NCCc2ccc(Cl)cc2)cc1 here?
Answer: inconclusive [inhibitor, single point]

Question: With O=C(Cc1ccccc1)N/N=C/c1ccccc1Cl as the compound, how does the “activity change, negative = growth inhibition” value read?
Answer: inactive: -21.1%

Question: Which Potency does the source give for CC(C)CC(N)c1csc(Nc2ccc(C(=O)N(C)Cc3ccccc3)cn2)n1 (configuration not stated) here?
Answer: active: 5.17 µM

Question: With CCCCCCOc1ccc(-c2ccc(C#N)cn2)cc1 as the compound, how does the “activity change, negative = growth inhibition” value read?
Answer: inactive: -26.5%

Question: With COc1cccc(OC)c1C(=O)Nc1ccc(C(=O)c2ccncc2)cc1 as the compound, how does the Potency read?
Answer: active: 13 µM

Question: With CC1CCN(C(=O)C2COc3ccccc3C2)CC1 (configuration not stated) as the compound, how does the “activity change, negative = growth inhibition” value read?
Answer: inactive: 5.12%

Question: With O=C(NC1CCCCC1)C(c1ccc(F)cc1)N(Cc1ccco1)C(=O)c1ccccn1 (configuration not stated) as the compound, how does the Potency read?
Answer: active: 0.82 µM

Question: With COc1cc2nc(NC(=O)c3ccc(Cl)cc3)[nH]c(=O)c2cc1OC as the compound, how does the activity change, negative = growth inhibition read?
Answer: inconclusive: -32% [inhibitor]

Question: For COc1ccc(CN2CCC(=O)N([C@H](CO)CC(C)C)CC2)cc1OC, which Potency is on record?
Answer: inconclusive [inhibitor, single point]

Question: For COc1ccc(C(=O)N=C2SC3CS(=O)(=O)CC3N2c2ccc(C(C)=O)cc2)cc1 (configuration not stated), which “activity change, negative = growth inhibition” value is on record?
Answer: inactive: 5.53%

Question: With Cc1cc(/C=C(/C#N)C(=O)O)c(C)n1-c1cccc2ccccc12 as the compound, how does the Potency read?
Answer: inconclusive [inhibitor, single point]
